Test results from PubChem BioAssay AID1347417 (National Center for Advancing Translational Sciences (NCATS), 2020).
Out of some 120,000 compounds screened, about 5,300 (4.4%) were called active. The inconclusive results got no clear call from the source; some entries with a clear call stand among them for comparison. The call rests on the fitted dose curve; in most records, active means well fitted inhibition curve with a large enough effect; inconclusive means small, poorly fitted or top-dose-only effect; inactive means no such curve, though single readings can be large or run the other way. Potencies of inconclusive entries are doubtful fits and often do not repeat.

Test: qHTS Primary assay for Inhibitors of Plasmodium falciparum Dd2 growth in vitro; further: nearly all actives have a fitted effect of over 65% in size
Details: P. falciparum Dd2 growth, SYBR Green, 72 h; series mostly up to 28.9 µM
Method in brief: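 Readout: SYBR Green fluorescence, 485 nm excitation, 535 nm emission, after ~16 h lysis at 37C. Before that, Dd2-infected red cells (2.5% hematocrit) grew 72 h with compound, 29 uM top final concentration.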
Potency means the concentration at half of the fitted maximal effect; tags describe the fitted curve by direction and shape.

Row | SMILES | Potency
1 | O=C(CC1N=C2c3ccccc3N=C(SCC(=O)Nc3cccc(Cl)c3)N2C1=O)NCc1cccs1 (stereo unspecified) | inconclusive: 7.94 µM [inhibitor, partial curve, poor fit]
2 | COc1ccc(CN2C(=O)COC[C@H]2C(=O)Nc2cc(F)cc(F)c2)cc1OC | inconclusive: 17.8 µM [inhibitor, single point]
3 | O=C(C1CCC1)N1[C@H]2CC[C@@H]1c1cnc(-c3ccccc3)nc1C2 | inconclusive: 11.2 µM [inhibitor, single point]
4 | CNC(=O)CCn1ncc2cc(OC3CCc4cccc(-c5cccc(F)c5)c43)ccc21 (stereo unspecified) | inactive
5 | Cc1ccc(NC(=O)CC2CCCN(c3cnn(C)c(=O)c3)C2)cc1F (stereo unspecified) | inconclusive: 10 µM [inhibitor, single point]
6 | CC(=O)N1CCN(c2cc(-c3noc([C@@H]4CCCN4Cc4ccccc4C)n3)ccn2)CC1 | active: 12.6 µM
7 | Cc1cccc(NC(=O)CN2C(=O)NC(c3ccc(Cl)cc3)C3=C2COC3=O)c1C (stereo unspecified) | inconclusive: 2.51 µM [inhibitor, partial curve, poor fit]
8 | CC(C)CNC(=O)C(NC(=O)c1ccccc1)C1CCN(C(=O)c2ccccc2)CC1 (stereo unspecified) | inconclusive: 8.91 µM [inhibitor, single point]
9 | COc1ccc(-c2cnc3[nH]cc(CC(=O)Nc4ccc(OC)nc4)c3c2)cc1 | active: 11.2 µM
10 | O=C(NCc1ccc(F)cc1)[C@H]1CN2CC[C@H]1C[C@@H]2Cn1cc(-c2ccccc2)nn1 | inconclusive: 2.82 µM [inhibitor, partial curve, poor fit]
11 | Cc1ccc(C(=O)c2cn(Cc3ccc(F)cc3)c3nc(C)ccc3c2=O)cc1 | inconclusive: 3.98 µM [inhibitor, single point]
12 | COc1ccc(C(=O)NC2CCN(C(=O)c3cc4c(=O)[nH]c(C)cn4n3)CC2)cc1F | inconclusive: 3.98 µM [inhibitor, partial curve, poor fit]
13 | COc1ccc(-c2cnc(Nc3cc(F)cc(N4CCOCC4)c3)c3c2CCO3)cn1 | active: 11.2 µM
14 | Cc1nn(Cc2ccccc2)c(C)c1NC(=O)c1cc(C(C)C)on1 | inconclusive: 3.98 µM [inhibitor, partial curve, poor fit]
15 | COc1ccc(CNC(=O)c2cc3c(=O)n(Cc4cccs4)ccc3nc2C)cc1 | inconclusive: 20 µM [inhibitor, single point]
16 | O=C(C1CC=CC1)N1CCC(c2nc(CCOCC3CC3)no2)C1 (stereo unspecified) | inconclusive: 10 µM [inhibitor, partial curve, poor fit]
